This note sets out measurements from paper PMC10726135.

Some of the results follow. At the low end of the ranking, values are background and their order means little. The protein was read in a cell extract, so binding may be indirect.

The target in this test is T1, HNF4alpha2 (COS-7 nuclear extract) (UniProt P41235).
T1 sequence: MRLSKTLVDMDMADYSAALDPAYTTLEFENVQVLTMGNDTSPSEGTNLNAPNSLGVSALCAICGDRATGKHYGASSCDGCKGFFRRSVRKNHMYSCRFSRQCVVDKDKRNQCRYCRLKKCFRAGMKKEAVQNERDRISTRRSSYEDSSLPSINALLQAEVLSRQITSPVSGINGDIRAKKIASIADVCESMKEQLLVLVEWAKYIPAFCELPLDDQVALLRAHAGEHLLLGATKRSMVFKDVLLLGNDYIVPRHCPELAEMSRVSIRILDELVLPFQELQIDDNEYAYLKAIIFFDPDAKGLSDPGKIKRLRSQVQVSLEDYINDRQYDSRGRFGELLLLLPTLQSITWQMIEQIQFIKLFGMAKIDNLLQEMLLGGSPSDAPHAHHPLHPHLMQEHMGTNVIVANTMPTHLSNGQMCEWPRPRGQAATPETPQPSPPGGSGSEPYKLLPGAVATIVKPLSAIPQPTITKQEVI
Put plainly: protein-binding microarray. The note with it: COS-7 nuclear extract on double-stranded Agilent 4x180k PBM; binding buffer, salt, pH and temperature not given; high values mean tight binding; double strand, one strand shown; sequences stand for … in …GCCTAGGGAGATTAGAGTATCGGTCGA
With TTTGGTACTCTTATCAGCAGTGACTTGAGA, the binding signal (log2 normalized intensity) worked out at 0.303. To GGGGCGATGCTTCCAAAGTCCACAGTCCCC belongs 2.91; to AGGGTTATGGGAAGTGGGGTAAGCAAGGCT, -1.25. Turning to AAGAGGCTGTCAACGGAGGTGGGAAAGACT, the binding signal (log2 normalized intensity) was -1.11. For TGAGCACATTCTTCAATATCAGTGGCACTC the value was -0.0767. Regarding TTACAACTGTAAACATCTAATGAACTGATT, the binding signal (log2 normalized intensity) was -1.03. With CTCTAAATTCCAGGGCTGGGTCCAGGAATG, the binding signal (log2 normalized intensity) was determined as 0.442. To AGATTACTTCAAGGCTGGAGTTCACTCCCA belongs -0.354; to GCAACTATTTATGAGTCTTGGGAATGAATC, 1.61; to CAGAGCTTGCTGCATTCCCCCACCTACTGT, 3.6. Consider AGGCTGTCAGAGTGCTGCATGCAAAAAGGC, for which the binding signal (log2 normalized intensity) is -0.743. For the sequence GCCTCTCAGCTCATTCAAAGTCCAAAAAGA, the binding signal (log2 normalized intensity) was found to be 2.84.

For the sequence TCCCCTGAGCTTGAGTCCATCCCATCTTCC, the binding signal (log2 normalized intensity) came to 1.39.

For GAGACAATCACTTGTATCGCCTGAATGACC, the binding signal (log2 normalized intensity) is 1.74. CAGGCCAGTAGGTCAGTGTCCCTCTTATAC: the binding signal (log2 normalized intensity) was 1.34. For TAATGCTGGTAAAGCACTTTGCCCCCAAGA the value was 5.54; for GCTTTGTTCTGTTCCAGTTATGTTCTCTGT, 2.07. Take GGGTAACTGACCTTGTTGCCCACCCCCCAA: the binding signal (log2 normalized intensity) was found to be 5.88.

With CTTATCTGGCCTGCTGGGAACTCAGGATCA, the binding signal (log2 normalized intensity) was -1.15. As for CATCCAAAGTTTCCTCTCCTGCCCTACTCC, the binding signal (log2 normalized intensity) was found to be 2.61. For the sequence CTGTCGTCCCAGGGCAAAGGTCACCAGCTA, the binding signal (log2 normalized intensity) was found to be 6.66. For GCCAAGGAAGAGAAGACCAAACAACCAGGG the value was -0.987. For GAGTTCCTTCAGACCCAATAAACTTGTTTG the value was 0.0934. For TGGTATCCACAGAGTTCATAATTTTGGACT the value was 2.52; for AAGCCTCAGGAGTTGGAGGAACAGGTGGGG, -1.09; for TGCTGAGTATGCAGCGGGCAGCCCGTGTGG, -1.02.

Regarding TAGGCCGGTCAAGTCAGAGGCCCAGCAAGG, the binding signal (log2 normalized intensity) is -1.17. Take ACCAGTCCCATCTGTGCTCATTATTATCAG: the binding signal (log2 normalized intensity) was 0.942.

For the sequence CGGGTGGACGTCCCCGGGCGGGATGGGGTC, the binding signal (log2 normalized intensity) turned out to be 1.69. Consider GAGTGAAGCCACAGAGATCAGAATCATAAA, for which the binding signal (log2 normalized intensity) was -1.12. For CAGGCTCAGGGACCCAGCGGAATGCCAGCC the value was -0.98; for CAAACAGCTTCCAGAATAGCCTCTGCAACT, -1.14. For CCTCATGGGCGATCCCGAAAGCCGGTTCCC the value was -1.19. For the sequence GTATGTGCCTGGAGAGCTAGTAAGGAGCTG, the binding signal (log2 normalized intensity) was -1.17.

As for CTGCGGCGGAAGGACACAGATTCAGAGTCA, the binding signal (log2 normalized intensity) was -1.21. For the sequence TTGAGCTCTGCACAGCACAAGATAAGATAG, the binding signal (log2 normalized intensity) is -1.02. With GTCCATGATTGCTGTCTACTCTGGGGGTCA, the binding signal (log2 normalized intensity) was determined as 3.52.

Take AGGTCAAAAATGATGCCTGACTCAAGAAAG: the binding signal (log2 normalized intensity) is -1.19. For CAAAGTCCAGTAAGGACAGTTCCAGGAATG the value was 1.54; for AAAGGGCAAAGGTCAGCTCATTCCCTAGGG, 6.27; for GGGCAAAGTCCCCTTTCCTCATATTTTGCA, 2.13.

As for GTCTATCCTTATTTATCTTCCAGCGGGTGC, the binding signal (log2 normalized intensity) was 1.78.

Consider AGGGTGAAGTTTGGCAATTACCCAACAGAC, for which the binding signal (log2 normalized intensity) was -1.22.

ACCAAAAAGGCTAACTTACCCGCTTAAGAG: the binding signal (log2 normalized intensity) was -1.13. To GGACTTTGAAGCTCCAAGATAGGAATGTAC belongs 2; to GGGCAAAGGAATAAAATAGCTGCCTGTGTG, -1.14; to TGAATATTTGCTTTCCAGTTCTTTGATAGC, 1.44.

With TCCATTCCGCGAGGGTCCCCACCTTCCATT, the binding signal (log2 normalized intensity) is 1.41.

In the case of CTGAGATAGTCATTCTTCTACAGTGTTTAC, the binding signal (log2 normalized intensity) is 0.901. Regarding AAGGATCAAAGTCACTCAGCCCGAGAAACG, the binding signal (log2 normalized intensity) was -1.14.

With CCACATGGATGGATTCAGATCCAGTGGACT, the binding signal (log2 normalized intensity) amounted to 2.18. As to TACAAGGAGCAGCCTAGTAAAAGGTAGATA, the binding signal (log2 normalized intensity) is -1.21. For GACATCTATCAACATATCTTATCCTCACAC the value was -0.201; for TACCAGATAGATGCTGCTCTCCCACTCCCC, 2.28. As for CCTCGAGGCAACCTTTGACCTGGTACTATG, the binding signal (log2 normalized intensity) came to 6.02. For the sequence AGAATGACCAGGAGTTTGGGATCAGACACG, the binding signal (log2 normalized intensity) was -1.05. For CCACACCTGTGAAGATCAGCTATCAGTTTA the value was -1.18; for AAGAAAAGTTATGTTGGGCAACTACCTCAA, -1.08; for CCACACATTGCCACACTATTTACACAGCTG, -1.07. For AAATGCATTATTGCACTGTGCTTTGTTTAC the value was 1.4; for CCAACCGGTTCCACAGTATCCCTTGCTCAA, -1.14; for TTCTGCTGGATGCCCAGGGATTCCTGAAGA, -0.0749. On to TGCCAAAGGTTAAAATTCCCTGTGGAATTT, for which the binding signal (log2 normalized intensity) came out at 1.86. Regarding GATTTTGTCCTGAGTTATTGGAAGAATGGA, the binding signal (log2 normalized intensity) stood at 1.3.

For TTGGAATGTGACGGCAGGTCCATGGTCAGC, the binding signal (log2 normalized intensity) is 0.879. For the sequence GGTATGCCTTTGAAGAGTACAGCCTTGCGT, the binding signal (log2 normalized intensity) is 0.667. Consider GGCTGAATGGGCAAAGGTCACAAGAGGTGC, for which the binding signal (log2 normalized intensity) came to 4.6. Consider GCCTCCCAGAACGTGGCCTTTAATCAACTG, for which the binding signal (log2 normalized intensity) is -0.0774. For AGAGTGCTTAATCTCTGCTCATAATGCCAG the value was 0.0183; for ACTTGGGATGCTGAGGTGGGAGGATCGCTT, -0.0501; for TGGACTGTAATACACAAGCAATAGGGTTCG, 0.186. For GCAAGGAACGGAATGTGTGATAAGGAACTG, the binding signal (log2 normalized intensity) was -0.447.
